# Experimental data reported in PubChem BioAssay (NCATS).
# This list was built around the results that the source calls inconclusive (neither active nor inactive); the mix of calls is not that of the screen. Where the call is inconclusive, the potency comes from a doubtful curve fit. Calls of active or inactive are those of the source. The call rests on the fitted dose curve; in most records, active means well fitted inhibition curve with a large enough effect; inconclusive means small, poorly fitted or top-dose-only effect; inactive means flat fitted curve, though single readings scatter.
# System: HaCat
# Assay: Cytotoxic Profiling of Annotated Libraries Using Quantitative High-Throughput Screening (AID 1296008); further: nearly all actives have a fitted effect of over 60% in size
# Conditions: Five cell lines viability, CellTiter-Glo ATP luminescence, 48-72 h; max response: stronger effect = lower value
# Procedure, shortened: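 Cytotoxicity was measured as CellTiter-Glo ATP luminescence, read after 10 min at room temperature. Compound treatment of the cells lasted 48 or 72 hr at 37 degrees Celsius in a qHTS format.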
# On the % scale 0 is the no-effect control and ±100 the full control effect; potency means the concentration at half of the fitted maximal effect; tags describe the fitted curve by direction and shape.
Compound,Potency,max response,outcome
CC(=O)NC1=NN(C(C)=O)C(C)(c2ccccc2)S1 (stereo not drawn),"inconclusive: 25.9 µM [inhibitor, single point]",–,–
CNC(=O)c1cccc(-c2ccc3c(N4CCOC[C@@H]4C)nc(N4CCOC[C@@H]4C)nc3n2)c1,"inconclusive: 16.4 µM [inhibitor, partial curve, poor fit]",–,–
Nc1ncnc2c1nc(N)n2[C@@H]1O[C@H](CO)[C@@H](O)[C@H]1O,active: 0.58 µM,–,–
COc1ccc(F)cc1-c1cc(NC(=O)[C@@H]2CCCNC2)ncc1Cl,active: 1.16 µM,–,–
CC(CCC1(O)OC2CC3C4CC=C5CC(O[C@@H]6O[C@H](CO)[C@@H](O[C@@H]7O[C@@H](C)[C@H](O)[C@@H](O)[C@H]7O)[C@H](O)[C@H]6O[C@@H]6O[C@@H](C)[C@H](O)[C@@H](O)[C@H]6O)CCC5(C)C4CCC3(C)C2C1C)CO[C@@H]1O[C@H](CO)[C@@H](O)[C@H](O)[C@H]1O (stereo partly drawn),"inconclusive: 6.18 µM [inhibitor, single point]",–,–
COc1ccnc(CS(=O)c2nc3cc(OC(F)F)ccc3[nH]2)c1OC (stereo not drawn),"inconclusive: 32.6 µM [inhibitor, partial curve, poor fit]",–,–
Nc1cccc(CNC(=O)c2ccc(Oc3ccc(OCc4cccc(F)c4)cc3)nc2)c1,"inconclusive: 32.6 µM [inhibitor, single point]",–,–
C=C(CCC1=C(C)[C@H]2[C@H](CC3[C@@H]4CC=C5C[C@@H](O)C[C@@H](O)[C@]5(C)C4[C@H](O)C[C@@]32C)O1)CO[C@@H]1O[C@H](CO)[C@@H](O)[C@H](O)[C@H]1O (stereo partly drawn),active: 4.32 µM,–,–
C[C@@H](O[C@H]1OCCN(Cc2n[nH]c(=O)[nH]2)[C@H]1c1ccc(F)cc1)c1cc(C(F)(F)F)cc(C(F)(F)F)c1,"inconclusive: 33.5 µM [inhibitor, single point]",–,–
C(=C\c1ccccc1)/CN1CCN(C(c2ccccc2)c2ccccc2)CC1,–,inactive: -6.19%,–
C=C1C(=O)O[C@H]2/C=C(/C)[C@@H](OC(C)=O)C/C=C(\C)C[C@@H](OC(=O)/C(=C/C)COC(=O)/C(=C/C)CO)[C@@H]12,"inconclusive: 12.6 µM [inhibitor, single point]",–,–
O=C(/C=C/c1ccc(O)c(O)c1)O[C@H]1[C@H](OC2CCCCC2O)O[C@H](CO)[C@@H](O)[C@@H]1O (stereo partly drawn),–,inactive: -16.7%,–
CNc1cccc(CCOc2ccc3c(c2)CN(CC(F)(F)F)C(=O)[C@H](CC(=O)O)C3)n1,"inconclusive: 0.0073 µM [inhibitor, full curve]",–,–
CC(Nc1ncnc2nc[nH]c12)c1cc2cccc(Cl)c2c(=O)n1-c1ccccc1 (stereo not drawn),active: 20.6 µM,–,–
Cc1ccccc1-n1c([C@H](C)Nc2nc(N)nc3nc[nH]c23)nc2cccc(C)c2c1=O,"inconclusive: 29.1 µM [inhibitor, single point]",–,–
CC1CCN(C(=O)CC#N)CC1N(C)c1ncnc2[nH]ccc12 (stereo not drawn),"inconclusive: 18.4 µM [inhibitor, partial curve, poor fit]",–,–
O=C1CSc2ccccc2N1Cc1cccc(C(F)(F)F)c1,"inconclusive: 18.4 µM [inhibitor, single point]",–,–
CCN(CC)CCCCNc1ncc2c(n1)N(C)C(=O)N(c1c(Cl)c(OC)cc(OC)c1Cl)C2,"inconclusive: 8.33 µM [inhibitor, partial curve, poor fit]",–,–
COc1ccc(Cc2cnc(N)nc2N)cc1OC,–,–,inactive
C/C1=C\CCC2=CC(OC2=O)C(C)(C)/C=C/C1=O (stereo not drawn),"inconclusive: 29.1 µM [inhibitor, single point]",–,–
COc1cc2nc(N3CCN(C)CC3)nc(NC3CCN(Cc4ccccc4)CC3)c2cc1OC,"inconclusive: 29.1 µM [inhibitor, single point]",–,–
CC(=O)O[C@H]1CC(C)(C)CC2[C@]13CO[C@@]21CCC2[C@@]4(C)CC[C@H](O[C@@H]5OC[C@H](O[C@@H]6O[C@H](CO)[C@@H](O)[C@H](O)[C@H]6O[C@@H]6OC[C@@H](O[C@@H]7O[C@H](CO)[C@@H](O)[C@H](O)[C@H]7O)[C@H](O)[C@H]6O)[C@H](O)[C@H]5O[C@@H]5O[C@H](CO)[C@@H](O)[C@H](O)[C@H]5O)[C@@](C)(CO)C4CC[C@@]2(C)[C@]1(C)C[C@H]3O (stereo partly drawn),–,inactive: 2.18%,–
CCOC(=O)c1cnn(-c2ccccc2)c1NC(=O)c1cc2nc(-c3ccco3)cc(C(F)(F)Cl)n2n1,–,inactive: 3.78%,–
